# From PubChem BioAssay AID1476 (National Center for Advancing Translational Sciences (NCATS), 2009)
# Where “and” joins values, the source holds several entries; their conditions need not be identical. Equal entries are not always repeated. Among all 200,000 compounds or so, about 4,500 (2.2%) were called active. Inconclusive means that the source gave no clear call. Such entries were picked first, then a sample of the others. Calls follow the shape of the dose curve; as a rule, active = well fitted inhibition curve with a large enough effect; inconclusive = small, poorly fitted or top-dose-only effect, or effect the other way; inactive = flat fitted curve, though single readings scatter. A potency beside an inconclusive call is a rough fit, not a confirmed value.
# Biological target: Cruzipain (Trypanosoma cruzi) (UniProt P25779)
# Assay: qHTS Assay for Promiscuous and Specific Inhibitors of Cruzain (without detergent); also: nearly all actives have a fitted effect of over 40% in size;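 as to max response, negative = inhibition: plate controls were enzyme without inhibitor for no effect and buffer without enzyme for full effect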
# Conditions: purified cruzain, Z-FR-AMC fluorescence, no detergent
# Outline: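 Detergent-free condition (0.00005% Triton X-100) in acetate buffer pH 5.5 with DTT. 1.5 nM enzyme and compound were pre-mixed 15 min, then 2 uM Z-FR-AMC substrate added; reaction progress from fluorescence change between first and third reads (60 s).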
# Potency is read from the fitted curve at half-maximal effect; tags tell the direction and shape of the fitted curve.
# UniProt P25779, sequence (P25779 whole entry, looked up): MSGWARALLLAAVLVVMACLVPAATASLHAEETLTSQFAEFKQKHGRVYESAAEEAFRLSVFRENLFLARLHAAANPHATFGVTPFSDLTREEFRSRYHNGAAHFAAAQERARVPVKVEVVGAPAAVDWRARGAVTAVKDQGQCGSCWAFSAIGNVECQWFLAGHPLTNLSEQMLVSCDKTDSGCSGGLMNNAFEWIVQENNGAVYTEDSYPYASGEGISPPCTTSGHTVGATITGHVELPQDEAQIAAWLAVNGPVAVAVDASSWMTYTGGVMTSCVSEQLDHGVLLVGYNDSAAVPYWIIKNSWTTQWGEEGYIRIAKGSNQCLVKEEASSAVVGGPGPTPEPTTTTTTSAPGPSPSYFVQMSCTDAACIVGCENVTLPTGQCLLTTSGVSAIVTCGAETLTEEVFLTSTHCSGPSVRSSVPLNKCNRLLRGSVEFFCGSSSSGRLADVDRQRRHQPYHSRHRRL
Structure (SMILES),Potency,"max response, negative = inhibition"
CCOC(=O)c1c(C)n(C)c2cc(-c3ccc(C)cc3)c(O)cc12,"inconclusive: 31.6 µM [inhibitor, single point]",
O=C(CCS(=O)(=O)c1cc2c(cc1Cl)NC(=O)CO2)NCc1ccccc1,,inconclusive: 31.2% [activator]
O=c1c2ccccc2n2c(-c3cccc(Cl)c3)nnc2n1Cc1ccccc1,"inconclusive: 39.8 µM [inhibitor, single point]",
COc1ccc(-c2cc(C(F)(F)F)nc(N3CCCCCC3)n2)cc1,,inactive: 6.28%
Cn1ccnc1C[C@@](C)(O)c1ccccc1,,inactive: 1.35%
CC(=O)N1c2ccc(S(=O)(=O)NCC3CCC(C(=O)Nc4cccc(C)c4)CC3)cc2CC1C (stereo not given),"inconclusive: 25.1 µM [activator, single point]",
CCOC(=O)c1cnc(N(C)C)nc1SC(=N)N,,inactive: -5.61%
O=C(NCCCN1CCN(c2ccccc2F)CC1)c1sc2ncccc2c1-n1cccc1,,inactive: 21.7%
O=C(c1ccc(Cl)cc1)[C@@H]1[C@@H]2C(=O)N(c3ccc(Cl)cc3)C(=O)[C@@H]2C2c3ccccc3C=NN21 (stereo not given in full),"inconclusive: 31.6 µM [inhibitor, single point]",
NC(=S)NNC(=O)Nc1ccc(Cl)c(Cl)c1,active: 2 µM,
O=[N+]([O-])c1cc(S(=O)(=O)N2CCCC2)ccc1N/N=C/c1cccnc1,,inactive: 7.34%
Cc1c(NC(=S)N/N=C/C=C/c2ccc([N+](=O)[O-])cc2)c(=O)n(-c2ccccc2)n1C,"inconclusive: 20 µM [inhibitor, partial curve]",
CCN(CC)S(=O)(=O)c1ccc2c(c1)c(=O)c(C(=O)N1CCN(c3ccccc3OC)CC1)cn2C,,inconclusive: 42.6% [activator]
Cc1ccc(/C=C/C(=O)Nc2cc(C)on2)cc1,"inconclusive: 39.8 µM [inhibitor, single point]",
CC(C)n1nc(C(=O)Nc2nnc(SCc3c(Cl)cccc3Cl)s2)c2ccccc2c1=O,active: 12.6 µM,
Cc1c(C(=O)Oc2ccc(Br)cc2)sc2ncn(Cc3ccccc3F)c(=O)c12,,inactive: -3.61%
COc1ccc(-c2cc(C(=O)NCc3ccc(C)cc3)c3cc(C(C)C)ccc3n2)cc1,,inactive: 1.03%
COc1ccc(-c2nnc(CSc3nc4ccccc4c(=O)n3CC(C)C)o2)cc1OC,"inconclusive: 31.6 µM [activator, single point]",
Cc1ccc(S(=O)(=O)NCCSCc2ccccc2)cc1,"inconclusive: 31.6 µM [inhibitor, single point]",
Cc1ccc2nc(/C(C#N)=C/c3ccc(-c4ccc(C(=O)OC(C)C)cc4)o3)[nH]c2c1,active: 12.6 µM,
COc1cc2c(cc1NC(=O)CSc1nc3ccc(C)cc3[nH]1)oc1ccccc12,"inconclusive: 31.6 µM [inhibitor, single point]",
O=C(N/N=C\C=C\c1ccco1)c1cc(-c2ccc3ccccc3c2)n[nH]1,active: 15.8 µM,

Structure (SMILES),Potency,"max response, negative = inhibition"
O=C(CSc1nc2c(sc3ccccc32)c(=O)n1CCO)NCc1ccco1,"inconclusive: 39.8 µM [inhibitor, single point]",
COc1cccc(NC(=O)c2ccccc2-c2nc(-c3ccc(Cl)cc3)no2)c1,"inconclusive: 39.8 µM [inhibitor, single point]",
Cc1[nH]c(=O)[nH]c(=O)c1NC(=O)c1sc2nc3c(C)cccc3cc2c1N,"inconclusive: 39.8 µM [activator, single point]",
Cc1ccc(NC(=O)CN(C)C(=O)COc2c(Cl)cc(Cl)c3ccc(C)nc23)cc1,"inconclusive: 39.8 µM [activator, single point]",
CCN(CCCNC(=O)COc1cc(=O)n(CC)c2ccccc12)c1ccccc1,"inconclusive: 39.8 µM [activator, single point]",
Cc1ccc(C)c(NC(=O)Cn2c(=O)n(CCCS(=O)(=O)C3CCCCC3)c(=O)c3ccccc32)c1,,inactive: -15.6%
Cc1ccc2c(c1)C(=O)C1(O)CCN(c3ccccc3)C1=N2 (stereo not given),,inactive: 2.57%
CCOC(=O)c1c(NC(=O)c2cc(C)oc2C)sc(C(=O)Nc2ccc(Cl)cc2)c1C,"inconclusive: 3.98 µM [inhibitor, full curve]",
CCOC(=O)c1c(NC(=O)C2(C)Cc3ccccc3C(=O)O2)sc2c1CCCC2 (stereo not given),"inconclusive: 31.6 µM [inhibitor, single point]",
CC1=C(C(=O)OC2CCCCCC2)C(c2ccc(Cl)cc2Cl)CC(=O)N1 (stereo not given),,inactive: 0.319%
COc1ccc2c(c1)O[C@@H](c1cccc(C(F)(F)F)c1)[C@H](OC(=O)N[C@H](C)C1CCCCC1)C2=O,,inactive: -0.925%
Cn1c(=O)c(Nc2ccc(O)cc2)c2c3c(cccc31)C(=O)c1ccccc1-2,"inconclusive: 39.8 µM [inhibitor, single point]",
CCOC(=O)c1cc(OC(=O)c2cc(OC)cc(OC)c2)n(-c2ccccc2)n1,,inactive: 11.9%
CC(=O)Nc1ccc(S(=O)(=O)NCC(=O)OCc2cc(=O)oc3ccc4ccccc4c23)cc1,"inconclusive: 25.1 µM [inhibitor, single point]",
CC1(C)CC(=O)c2sc(NC(=O)CCS(=O)(=O)c3ccccc3)nc2C1,,inactive: -6.37%
Cc1ccc(C2c3c(oc4ccccc4c3=O)C(=O)N2c2nnc(C(C)C)s2)o1 (stereo not given),"inconclusive: 25.1 µM [activator, single point]",
COCCCNC(=O)c1ccc(-n2c(-c3ccccc3)cc3c2CCCCC3)cc1,"inconclusive: 15.8 µM [inhibitor, partial curve, poor fit]",
O=[N+]([O-])c1ccccc1C1Nc2cccc3cccc(c23)N1,"inconclusive: 31.6 µM [inhibitor, single point]",
CN(C)S(=O)(=O)c1ccc(C(=O)Nc2nnc(SCc3ccccc3)s2)cc1,active: 3.16 µM,
COCC(=O)N1CCC2(CC1)CCN(C(=O)Nc1cccc(C#N)c1)CC2,,inactive: 16%
Cc1cccc(Cn2c(CN3CCCC(C)C3)nc3c2c(=O)n(C)c(=O)n3C)c1 (stereo not given),,inactive: -0.47%
CCOC(=O)c1c(-c2ccc(C)cc2)csc1NC(=O)C1CC=CCC1C(=O)O (stereo not given),"inconclusive: 31.6 µM [activator, single point]",

Structure (SMILES),Potency,"max response, negative = inhibition"
COc1cc(/C=C(\C#N)c2nc3c(s2)CC(C)CC3)ccc1O (stereo not given),"inconclusive: 39.8 µM [activator, single point]",
CCOc1ccc(CCNC(=O)c2nn(C)c3c2CSc2ccc(C)cc2-3)cc1OCC,,inactive: -3.67%
CCOC(=O)c1c(-c2ccc(F)cc2)csc1NC(=O)CCN1C(=O)c2ccccc2C1=O,"inconclusive: 31.6 µM [inhibitor, single point]",
COC(=O)c1cc2oc3ccccc3c2n1CC(=O)Nc1ccc(F)c(Cl)c1,,inactive: -10.3%
Cc1ccc(S(=O)(=O)N2CCc3cc(C(=O)Nc4c(C)cccc4C(C)C)ccc32)cc1,"inconclusive: 31.6 µM [inhibitor, single point]",
Cc1nc2cc(-c3cccc(F)c3)nn2c(N2CCN(C(=O)c3ccco3)CC2)c1C,"inconclusive: 25.1 µM [activator, single point]",
Cc1nc2ccccn2c1C(=O)N/N=C/c1cc(C)n(-c2ccc(Cl)cc2)c1C,"inconclusive: 39.8 µM [activator, single point]",
C[C@]12CC[C@H](O)CC1=CCC1C2CC[C@]2(C)C(=O)CC[C@@H]12 (stereo not given in full),,inactive: 3.06% and inactive: 6.1% and inactive: 12%
O=[N+]([O-])c1ccc(N2CCN(S(=O)(=O)c3ccc4ccccc4c3)CC2)cc1NCc1ccco1,active: 7.94 µM,
Cc1cc(C)nc(N2CCCC(C(=O)Nc3nc4ccc(S(C)(=O)=O)cc4s3)C2)n1 (stereo not given),"inconclusive: 25.1 µM [activator, single point]",
O=C(Nc1ccc(F)cc1Cl)c1cnc(N2CCOCC2)c2ccccc12,"inconclusive: 31.6 µM [activator, single point]",
Fc1ccc(-c2cc3nc(-c4ccccc4)cc(N4CCN(CCN5CCOCC5)CC4)n3n2)cc1,"inconclusive: 31.6 µM [activator, partial curve]",
CC(Sc1nc2cc([N+](=O)[O-])ccc2n1-c1ccc(F)cc1)C(=O)NCc1ccc2c(c1)OCO2 (stereo not given),"inconclusive: 25.1 µM [inhibitor, single point]",
CCOC(=O)N1CCN(C(=O)CN(C2CCCCC2)S(=O)(=O)c2c(C)cc(C)cc2C)CC1,"inconclusive: 39.8 µM [activator, single point]",
CCCOc1cccc(C(=O)N2CCCCC2CCN2CCCCC2)c1 (stereo not given),,inactive: -8.6%
COc1ccccc1CN1CC[C@@]2(CCCN(C(=O)c3ccco3)C2)C1,,inactive: -0.119%
Cc1ccc(NC(=O)CCc2nc3cccnc3n2-c2ccccc2)cc1Cl,"inconclusive: 25.1 µM [activator, single point]",
O=c1c2sc3ccccc3c2n(Cc2ccc(Cl)cc2)c(=O)n1Cc1ccco1,,inactive: -14%
COc1ccc(C2C=C(c3ccc(Cl)cc3)Nc3nc(NC(=O)CCC(=O)O)nn32)cc1 (stereo not given),"inconclusive: 5.01 µM [activator, single point]",
O=C(COC(=O)c1cc(S(=O)(=O)N2CCc3ccccc3C2)ccc1Cl)NCc1ccco1,"inconclusive: 39.8 µM [activator, single point]",
Cc1ccccc1Cn1c(C)c(CNCCCc2ccccc2)c(C(=O)O)c1C,,inactive: 6.56%
